Experimental data from PubChem BioAssay AID588342 (National Center for Advancing Translational Sciences (NCATS), 2011).
Among all 360,000 compounds or so, about 25,000 (6.9%) were called active. Inconclusive means that the source gave no clear call. Such entries were picked first, then a sample of the others. The call rests on the fitted dose curve; in most records, active means well fitted inhibition curve with a large enough effect; inconclusive means small, poorly fitted or top-dose-only effect; inactive means flat fitted curve, though single readings scatter. Potencies beside an inconclusive call are fits to weak or partial responses and may not hold up.

biological target: Luciferin 4-monooxygenase (Photinus pyralis) (UniProt P08659); assay: qHTS profiling assay for firefly luciferase inhibitor/activator using purifed enzyme and Km concentrations of substrates (counterscreen for miR-21 project); conditions: purified FLuc, luminescence inhibition; activity change, negative = inhibition: at 57.5 µM (top of the series); further: nearly all actives have a fitted effect of over 55% in size;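 on activity change, negative = inhibition: plate controls were vehicle for no effect and reference inhibitor for full effect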
How it was run: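 Biochemical qHTS of compounds, final roughly 60 µM downward over six points, against 10 nM purified firefly luciferase using Km concentrations of substrates (10 uM D-luciferin, 10 uM ATP) in Tris acetate pH 7.5 buffer; luminescence output.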
Potency means the concentration at half of the fitted maximal effect; tags describe the fitted curve by direction and shape.

UniProt P08659, sequence (P08659 whole entry, looked up): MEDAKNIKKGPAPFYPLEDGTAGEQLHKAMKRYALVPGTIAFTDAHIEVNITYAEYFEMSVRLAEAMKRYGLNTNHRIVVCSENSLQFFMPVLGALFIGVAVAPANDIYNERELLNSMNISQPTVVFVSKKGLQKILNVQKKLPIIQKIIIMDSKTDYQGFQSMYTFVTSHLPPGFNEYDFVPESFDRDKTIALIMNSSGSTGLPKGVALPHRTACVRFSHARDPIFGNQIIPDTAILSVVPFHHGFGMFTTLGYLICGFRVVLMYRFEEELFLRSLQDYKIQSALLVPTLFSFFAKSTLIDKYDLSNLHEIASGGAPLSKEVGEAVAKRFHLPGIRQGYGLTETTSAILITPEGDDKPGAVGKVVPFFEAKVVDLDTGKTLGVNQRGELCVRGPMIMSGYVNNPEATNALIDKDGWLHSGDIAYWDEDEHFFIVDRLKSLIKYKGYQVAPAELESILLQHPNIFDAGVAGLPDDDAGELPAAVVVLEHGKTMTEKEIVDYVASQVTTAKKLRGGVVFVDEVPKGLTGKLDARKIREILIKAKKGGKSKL

SMILES | Potency | activity change, negative = inhibition
Cc1nn(-c2ccccc2)c(Cl)c1C(=O)NCC(C)c1ccccc1 (stereo not given) | inconclusive: 33.8 µM [inhibitor, single point] | 
COc1cc(OC)c(OC)cc1/C=N/NC(=O)c1cc(-c2cccn2C)n[nH]1 |  | inactive: -15.6%
O=C(Nc1cccc(-n2cnnn2)c1)c1ccc(OC(F)(F)F)cc1 | inconclusive: 26.9 µM [inhibitor, partial curve, poor fit] | 
O=S(=O)(c1ccc(Br)cc1)N1CCCc2ccccc21 |  | inactive: 2.03%
COc1ccc(N2CCN(C(=O)c3cc(S(=O)(=O)N4CCC(C)CC4)cn3C)CC2)cc1 | inconclusive: 16.9 µM [inhibitor, partial curve] | 
COc1ccc(CSc2nnc3[nH]c(=O)cc(N)n23)cc1 | inconclusive: 30.1 µM [inhibitor, single point] | 
Cn1c(C(=O)N[C@@H](C(=O)O)c2ccccc2)cc2cc(F)ccc21 | inconclusive: 30.1 µM [inhibitor, single point] | 
CC(=O)c1sc(-c2ccccc2)cc1N | inconclusive: 37.9 µM [inhibitor, single point] | 
COc1ccc(CC(=O)Nc2ccc(-c3cn4ccc(C)cc4n3)cc2)cc1 | inconclusive: 7.57 µM [inhibitor, full curve] | 
CCCCOc1ccc(-c2c(C(=O)Nc3ccccc3)c(C)[nH]c(=S)c2C#N)cc1 | inconclusive: 37.9 µM [inhibitor, single point] | 
O=C(NNC(=O)c1ccc2ccccc2n1)c1ccc(O)cc1 | inconclusive: 23.9 µM [inhibitor, single point] | 
CC1CCN(C(=O)CN2C(=O)c3ccccc3S2(=O)=O)CC1 |  | inactive: -10.1%
O=C(N/N=C/c1ccc(Cl)c([N+](=O)[O-])c1)c1ccc2nc[nH]c2c1 | inconclusive: 23.9 µM [inhibitor, partial curve, poor fit] | 
Cc1cc(=O)n(CCc2ccccc2)c(O)c1C#N | active: 13.5 µM | 
O=C(NCc1ccco1)C1OCCc2ccccc21 (stereo not given) |  | inactive: -0.404%
CCC(=O)N1CCc2cc(Br)cc(S(=O)(=O)CCC(=O)N(CC)Cc3ccccc3)c21 |  | inactive: 1.03%
CN1/C(=N\O)c2cccc3cccc1c23 | inconclusive: 37.9 µM [inhibitor, partial curve, poor fit] | 
CC1=N/C(=C\c2ccc(OC(C)C)cc2)C(=O)N1c1ccc(C(=O)O)cc1 | active: 12 µM | 
CCOc1ccccc1OCC(=O)Nc1nc2ccccc2[nH]1 | active: 15.1 µM | 
COc1cccc(NC(=O)Nn2cnnc2)c1 |  | inactive: 1.81%
Cc1ccc(/C=N/n2cnc3sc4c(c3c2=O)CCCC4)o1 | inconclusive: 26.9 µM [inhibitor, single point] | 
N#Cc1cc(-c2ccccc2)oc1NC(=O)c1ccccc1 | inconclusive: 37.9 µM [inhibitor, single point] | 
Cc1ccc2nc(C3CCCN(C(=O)NCc4ccccc4)C3)[nH]c2c1 (stereo not given) | inconclusive: 23.9 µM [inhibitor, single point] | 

SMILES | Potency | activity change, negative = inhibition
COc1ccc(NC(=O)CSc2n[nH]c(-c3ccccn3)n2)cc1 | inconclusive: 37.9 µM [inhibitor, partial curve, poor fit] | 
CCCCCOC(=O)Cn1c(=O)oc2ccccc21 | inconclusive: 30.1 µM [inhibitor, partial curve, poor fit] | 
CC(=C/c1ccco1)/C=N/NC(=O)Cc1cccn1C | inconclusive: 23.9 µM [inhibitor, partial curve, poor fit] | 
CC1=C(C)CS(=O)N(S(=O)(=O)c2ccc(Cl)cc2)C1 (stereo not given) | inconclusive: 12 µM [inhibitor, partial curve, poor fit] | 
O=C(NCc1ccco1)C(=O)c1c[nH]c2ccccc12 | inconclusive: 37.9 µM [inhibitor, single point] | 
CCOc1ccc(Nc2c(S(=O)(=O)c3ccccc3)cnc3ccccc23)cc1 |  | inactive: -10.5%
N#CCCN/N=C(\Cc1nc2ccccc2[nH]1)c1ccccc1 | inconclusive: 26.9 µM [inhibitor, partial curve, poor fit] | 
Cc1ccc(CCNC(=O)CCSCc2ccccc2Cl)cc1 |  | inactive: -19.6%
Cc1nc(NCc2cccnc2)c2c3c(sc2n1)CCCC3 | inconclusive: 33.8 µM [inhibitor, partial curve, poor fit] | 
O=C(Nc1ccc(-c2noc(-c3ccccc3F)n2)cc1)c1cccs1 | inconclusive: 15.1 µM [inhibitor, partial curve] | 
COc1cccc(C(=O)N/N=C/c2cn[nH]c2-c2ccc(OC)cc2OC)c1 | active: 15.1 µM | 
CC(C)[C@H](NC(=O)c1ccccc1Cl)C(=O)NC1CCCCCC1 |  | inactive: 1.53%
Cc1ccc(Sc2ccc(N)cn2)cc1 | inconclusive: 26.9 µM [inhibitor, partial curve, poor fit] | 
O=C(O)C1CCCCC1C(=O)Nc1ccc(S(=O)(=O)N2CCCCC2)cc1 (stereo not given) |  | inactive: -1.68%
Cc1cc2ccccc2nc1SCC(=O)NC1CCCC1 | inconclusive: 21.3 µM [inhibitor, partial curve, poor fit] | 
Cc1cc(-c2csc(N)n2)c(C)n1CCc1ccccc1 | inconclusive: 37.9 µM [inhibitor, single point] | 
CCCCCCOc1ccc(C(=O)O)cc1 | inconclusive: 26.9 µM [inhibitor, single point] | 
Cc1csc(NC(=O)CN2C(=O)c3ccccc3S2(=O)=O)n1 | inconclusive: 3.38 µM [inhibitor, partial curve, poor fit] | 
CN(CC(=O)Nc1cccc(F)c1)C(=O)CCNC(=O)c1ccc(Br)cc1 | inconclusive: 37.9 µM [inhibitor, partial curve, poor fit] | 
Cn1c(-c2ccccc2)cnc1NCc1ccccc1 | inconclusive: 23.9 µM [inhibitor, single point] | 
COCCN1C(=O)C(=O)/C(=C(/O)c2ccc(S(=O)(=O)N3CCOCC3)cc2)C1c1ccc(O)cc1 (stereo not given) |  | inactive: -2.17%
O=S1(=O)N=C(N/N=C/C=C/c2ccccc2)c2ccccc21 | inconclusive: 37.9 µM [inhibitor, partial curve, poor fit] | 
